In all, about 33,000 sequences were measured (“E-score (-0.5 to 0.5)”: median about -0.011, highest 2% from about 0.28 on). This is one part of the list.
These sequences were tested against T1, Gcr1 (UniProt P07261) (assay: PBM E-score (8-mer binding enrichment) (E-score (-0.5 to 0.5)); higher = stronger / more preferred TF binding; most listed sequences are background and not binding sites). Details: protein concentration: 100 nM; construct: GST-full length.
T1 sequence: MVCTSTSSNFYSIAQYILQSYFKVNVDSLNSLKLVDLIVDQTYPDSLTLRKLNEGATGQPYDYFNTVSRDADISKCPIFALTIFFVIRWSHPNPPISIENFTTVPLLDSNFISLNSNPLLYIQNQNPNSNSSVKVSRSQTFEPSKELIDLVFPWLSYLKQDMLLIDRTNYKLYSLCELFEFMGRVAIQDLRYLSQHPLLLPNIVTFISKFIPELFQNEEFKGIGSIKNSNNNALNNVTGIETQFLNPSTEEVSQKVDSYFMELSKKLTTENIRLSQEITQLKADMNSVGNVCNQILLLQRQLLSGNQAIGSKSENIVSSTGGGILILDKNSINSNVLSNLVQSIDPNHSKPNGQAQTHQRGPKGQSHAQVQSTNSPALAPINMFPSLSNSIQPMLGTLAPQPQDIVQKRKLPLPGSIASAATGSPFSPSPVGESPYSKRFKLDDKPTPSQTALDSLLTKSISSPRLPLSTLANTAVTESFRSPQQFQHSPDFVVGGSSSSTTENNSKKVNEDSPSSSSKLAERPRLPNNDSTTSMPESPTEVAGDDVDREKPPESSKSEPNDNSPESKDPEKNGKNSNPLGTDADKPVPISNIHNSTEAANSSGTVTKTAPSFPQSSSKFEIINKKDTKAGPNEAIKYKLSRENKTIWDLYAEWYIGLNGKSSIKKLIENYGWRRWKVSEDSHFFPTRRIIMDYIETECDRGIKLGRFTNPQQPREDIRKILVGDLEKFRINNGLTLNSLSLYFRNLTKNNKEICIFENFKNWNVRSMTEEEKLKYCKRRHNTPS
Procedure, shortened: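 Masliner-normalised scans of fluorescent anti-GST signal were the basis for scoring. That signal came from GST-tagged yeast transcription factors applied at about 100-200 nM to double-stranded universal all-10-mer Agilent arrays on fresh or once-stripped slides. Each ungapped eight-base word, pooled with its reverse complement, received an E-score from the Universal PBM Analysis Suite.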

Row | Sequence | PBM E-score
1 | CCCACCCC | 0.192
2 | AGCCTCTA | 0.0722
3 | CAGAGTGC | -0.056
4 | GGCTCGTA | -0.121
5 | AACCCTAC | -0.0892
6 | ATGGACCC | 0.0825
7 | ATTATACG | 0.262
8 | ACGGCCTC | -0.246
9 | ACTTGCTG | -0.0458
10 | CTCATTAC | -0.00627
11 | TCCGCCAA | -0.0715
12 | GTTTACAA | 0.094
13 | GGCATGCA | -0.213
14 | GACTGCAC | -0.177
15 | ACGACTTA | -0.0262
16 | GGTCACAC | -0.238
17 | CCGAGTAA | 0.0742
18 | CTGAAGAC | -0.0415
19 | CTACCCTA | -0.168
20 | TCCTCTAA | 0.282
21 | TAGGGTGA | -0.105
22 | CCAGACAA | -0.0554
23 | TAACCCGA | -0.125
24 | TACTACGA | -0.0595
25 | ATCGGGAC | 0.0526

Row | Sequence | PBM E-score
26 | CGTCTCCA | 0.284
27 | ACAAATAC | 0.161
28 | CAGCACCG | 0.137
29 | AGTCCAGA | -0.0665
30 | AGGAGCTA | -0.115
31 | CGGAGATA | -0.0368
32 | ATCCCGTA | 0.125
33 | AAGGGATC | -0.155
34 | ACCATGAG | -0.214
35 | CTATCGTA | 0.111
36 | AGATCCTC | -0.144
37 | CAATTTTC | 0.00662
38 | ACACCACG | -0.0678
39 | CAATGAAC | -0.05
40 | CCCCCTGA | -0.366
41 | ACGAGCAA | -0.202
42 | CCTTATCC | -0.0592
43 | AACATAAT | 0.119
44 | ATTATGGC | 0.0727
45 | GTGGTATA | 0.0831
46 | CAAAATGA | 0.0843
47 | ATCTGTTA | 0.00343
48 | CGATCCCA | 0.121
49 | AAGAAACT | -0.142
50 | AGGGGGCA | -0.0999

Row | Sequence | PBM E-score
51 | ACAACGAA | -0.102
52 | ACAATTCC | 0.0286
53 | CGACCACA | -0.00432
54 | AGCAGCAG | -0.0192
55 | ACTCGCGA | 0.033
56 | GACGCGCC | 0.231
57 | GCCCAGGC | -0.146
58 | ACTGCAAT | -0.0156
59 | CGCCGAAG | -0.1
60 | ACCACTGG | 0.0029
61 | CGGGATAG | -0.172
62 | CAAGCTAC | 0.108
63 | AGGGCTTG | -0.209
64 | CTACGGAG | -0.0903
65 | GCCAGACC | -0.206
66 | ATGAAGGG | -0.174
67 | GACAGTAA | -0.14
68 | TGAATAAA | 0.191
69 | CGTTGGGA | 0.153
70 | ATCGTTTA | -0.0539
71 | AGCTGGAG | -0.0939
72 | ATGCGCCC | 0.0661
73 | CACGTTAG | -0.0687
74 | CTACGTCA | 0.104
75 | ACGAGTCT | -0.192

Row | Sequence | PBM E-score
76 | CTGGCAGA | 0.0263
77 | CACCAATC | 0.103
78 | ACAGAGCC | -0.0515
79 | CCGTGTCG | -0.0404
80 | ATCACGGA | -0.0946
81 | GGCGTTAA | -0.161
82 | ACAGCGGT | -0.219
83 | GTCAACTA | 0.049
84 | TATCATCA | 0.0211
85 | AATACGCG | 0.161
86 | CCCCTATA | 0.269
87 | AATGTCGG | 0.0294
88 | CATCGAAA | -0.0269
89 | ACTCGATA | -0.0494
90 | CAGGCCAA | -0.0461
91 | ATCTCAAC | -0.213
92 | CCCTATTA | 0.0111
93 | ACAGGGTG | 0.041
94 | AGAGCGCG | -0.178
95 | AATGACCC | -0.201
96 | GAATCAGC | 0.0819
97 | CCAAAGCG | -0.0616
98 | ATATTGGG | 0.159
99 | AGTTAACT | -0.0401
100 | CATGTCAA | -0.255

Row | Sequence | PBM E-score
101 | CGAGCCTA | -0.0984
102 | AATGGGCG | 0.15
103 | AAGAGTTA | -0.133
104 | GCATATGA | -0.015
105 | AAACAGTA | -0.0229
106 | GACACAAC | -0.114
107 | CCACGGTA | -0.0916
108 | ACGCGCTG | 0.12
109 | TGGGGGAA | -0.124
110 | GTCACCAA | 0.0813
111 | AATGGGGA | 0.236
112 | CTGCACGA | -0.167
113 | AAACGTTT | -0.139
114 | ACCGATCC | -0.0861
115 | AGCTCGTG | 0.0258
116 | GCCTCCAC | -0.0325
117 | CATACCGC | -0.0616
118 | CCTTTAGC | -0.119
119 | ACCCGTCC | -0.245
120 | GAGGAGAC | -0.167
121 | AGTGTTCA | 0.0609
122 | CTGTGCCC | -0.111
123 | CGATACGC | 0.0218
124 | CCTCGATC | -0.148
125 | ATAGGGCC | -0.316

Row | Sequence | PBM E-score
126 | TCCTAGAA | 0.174
127 | CCGAGTTC | -0.00269
128 | TCCGGGCA | 0.107
129 | ACGTGCTG | 0.0435
130 | AAGCGCGC | 0.0817
131 | GAAACCAA | 0.147
132 | CCATGAGA | -0.0617
133 | GCTATGTA | -0.0481
134 | AGGGTTAT | 0.0654
135 | AGCCTGTC | -0.141
136 | CAAAATGC | -0.0148
137 | AGTGCACA | -0.206
138 | AATATGGC | -0.0457
139 | CTAACGCC | -0.227
140 | ACCAGGCA | -0.0973
141 | AGAGGGCC | -0.16
142 | AAATTGGG | 0.295
143 | ATTCTACA | -0.0176
144 | TACTTAGA | 0.0754
145 | ACATTGGG | 0.0408
146 | ATCAGTGG | 0.168
147 | GTGGGATA | 0.0848
148 | GTTGCGGA | 0.0873
149 | CAGTAACA | -0.0453
150 | CCAAGCCC | -0.093

Row | Sequence | PBM E-score
151 | ACGGACGA | 0.207
152 | TTGATCAA | 0.0444
153 | CCTTACAG | 0.0754
154 | CCGCAGTC | 0.0536
155 | AGCTCTCC | -0.23
156 | TACAACCA | 0.16
157 | CTTTTATA | 0.266
158 | ACGAATCC | 0.288
159 | AGAGAGCC | -0.234
160 | TAACCTGA | -0.2
161 | AGCATCTG | 0.115
162 | ATGTTTTA | 0.179
163 | GAGTTAGC | -0.159
164 | ACCTTTGG | -0.061
165 | GTGCGCAA | 0.0634
166 | AGGGGACT | -0.0785
167 | CCTTCATA | -0.144
168 | GCCCCGCC | -0.00757
169 | ACTAACGA | 0.0263
170 | CGTCGTGA | -0.0907
171 | GTCGTCTA | 0.0946
172 | AGGCCTCA | -0.317
